This passage reports binding results from PMC3589417.

Protein sequences, listed by entry. Tags and fused reporters are not part of them.
UniProt Q13547: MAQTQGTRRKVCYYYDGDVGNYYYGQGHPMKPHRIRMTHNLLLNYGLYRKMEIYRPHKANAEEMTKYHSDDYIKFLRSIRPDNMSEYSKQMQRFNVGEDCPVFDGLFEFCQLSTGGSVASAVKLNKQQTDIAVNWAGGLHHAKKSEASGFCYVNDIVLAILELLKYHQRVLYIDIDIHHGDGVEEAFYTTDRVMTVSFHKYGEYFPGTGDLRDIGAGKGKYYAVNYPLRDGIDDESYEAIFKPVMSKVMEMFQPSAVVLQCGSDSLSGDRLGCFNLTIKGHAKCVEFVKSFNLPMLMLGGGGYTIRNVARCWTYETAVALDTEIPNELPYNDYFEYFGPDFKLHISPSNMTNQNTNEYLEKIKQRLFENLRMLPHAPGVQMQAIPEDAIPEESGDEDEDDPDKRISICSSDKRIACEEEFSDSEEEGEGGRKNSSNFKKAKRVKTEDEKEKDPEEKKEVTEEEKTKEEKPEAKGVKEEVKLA
UniProt Q16531: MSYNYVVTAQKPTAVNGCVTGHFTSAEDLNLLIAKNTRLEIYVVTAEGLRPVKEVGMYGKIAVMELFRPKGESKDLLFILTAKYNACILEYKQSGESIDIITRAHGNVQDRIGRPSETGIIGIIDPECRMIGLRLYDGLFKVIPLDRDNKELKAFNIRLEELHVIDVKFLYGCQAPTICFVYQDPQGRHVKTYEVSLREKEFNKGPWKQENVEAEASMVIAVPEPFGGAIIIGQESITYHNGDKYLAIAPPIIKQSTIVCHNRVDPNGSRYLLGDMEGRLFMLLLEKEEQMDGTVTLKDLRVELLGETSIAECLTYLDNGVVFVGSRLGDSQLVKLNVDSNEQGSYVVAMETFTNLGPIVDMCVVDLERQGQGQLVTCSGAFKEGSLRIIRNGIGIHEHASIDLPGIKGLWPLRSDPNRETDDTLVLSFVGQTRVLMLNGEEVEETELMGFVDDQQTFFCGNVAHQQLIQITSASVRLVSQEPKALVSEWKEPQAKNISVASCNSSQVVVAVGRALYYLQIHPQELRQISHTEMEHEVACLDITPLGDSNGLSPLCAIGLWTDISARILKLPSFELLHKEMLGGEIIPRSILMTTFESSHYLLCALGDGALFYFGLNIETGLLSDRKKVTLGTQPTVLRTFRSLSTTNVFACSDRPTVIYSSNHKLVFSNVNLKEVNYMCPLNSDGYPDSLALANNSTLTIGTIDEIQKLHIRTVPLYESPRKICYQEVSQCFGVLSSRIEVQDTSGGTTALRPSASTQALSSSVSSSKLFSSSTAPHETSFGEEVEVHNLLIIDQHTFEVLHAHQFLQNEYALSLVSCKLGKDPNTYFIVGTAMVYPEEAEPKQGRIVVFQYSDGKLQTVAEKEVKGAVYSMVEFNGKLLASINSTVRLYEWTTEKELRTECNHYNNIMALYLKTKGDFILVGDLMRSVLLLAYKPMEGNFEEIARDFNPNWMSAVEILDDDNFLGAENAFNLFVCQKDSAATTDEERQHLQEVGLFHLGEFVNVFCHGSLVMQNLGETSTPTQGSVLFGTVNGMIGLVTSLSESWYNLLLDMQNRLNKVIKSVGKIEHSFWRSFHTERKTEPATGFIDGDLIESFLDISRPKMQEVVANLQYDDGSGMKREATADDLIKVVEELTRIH
UniProt Q9UBN7: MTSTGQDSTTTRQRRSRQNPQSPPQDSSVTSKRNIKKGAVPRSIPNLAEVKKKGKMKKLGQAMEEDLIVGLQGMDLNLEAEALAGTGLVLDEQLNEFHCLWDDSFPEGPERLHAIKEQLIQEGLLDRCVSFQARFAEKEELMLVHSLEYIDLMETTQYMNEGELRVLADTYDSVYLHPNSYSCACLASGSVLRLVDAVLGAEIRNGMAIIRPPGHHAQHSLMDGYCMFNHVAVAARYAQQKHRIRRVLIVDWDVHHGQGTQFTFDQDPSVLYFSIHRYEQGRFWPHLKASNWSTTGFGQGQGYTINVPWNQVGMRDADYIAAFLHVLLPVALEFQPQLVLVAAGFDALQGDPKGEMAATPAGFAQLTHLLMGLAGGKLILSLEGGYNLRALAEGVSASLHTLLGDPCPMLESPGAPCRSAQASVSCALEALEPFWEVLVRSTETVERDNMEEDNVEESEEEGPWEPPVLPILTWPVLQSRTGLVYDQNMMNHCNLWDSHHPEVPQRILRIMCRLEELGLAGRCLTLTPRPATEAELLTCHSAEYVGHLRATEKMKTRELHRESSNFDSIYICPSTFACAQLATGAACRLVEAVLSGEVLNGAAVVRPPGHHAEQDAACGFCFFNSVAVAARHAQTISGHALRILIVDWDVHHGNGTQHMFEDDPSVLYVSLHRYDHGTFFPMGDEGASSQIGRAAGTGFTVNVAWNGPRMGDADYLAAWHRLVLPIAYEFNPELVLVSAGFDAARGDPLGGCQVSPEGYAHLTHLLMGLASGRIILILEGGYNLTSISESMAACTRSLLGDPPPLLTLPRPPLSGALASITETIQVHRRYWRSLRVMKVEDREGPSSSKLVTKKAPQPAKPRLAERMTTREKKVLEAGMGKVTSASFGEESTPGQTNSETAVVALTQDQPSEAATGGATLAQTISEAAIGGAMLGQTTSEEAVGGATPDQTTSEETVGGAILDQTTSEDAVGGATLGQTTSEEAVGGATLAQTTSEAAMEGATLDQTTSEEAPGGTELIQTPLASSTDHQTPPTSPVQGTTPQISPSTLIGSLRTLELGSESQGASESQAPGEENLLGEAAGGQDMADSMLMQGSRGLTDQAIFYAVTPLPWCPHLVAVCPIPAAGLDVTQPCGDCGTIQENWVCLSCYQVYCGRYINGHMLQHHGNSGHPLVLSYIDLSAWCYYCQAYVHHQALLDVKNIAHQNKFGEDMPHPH

Where a chain is given by its changes, count along the chain named. Numbers in names are those of the source. No constants are given. Whether binding was seen depends on the method and setting. Binding seen in cells or lysates may run through a third protein. Some binding calls cover weakened binding; strength is not graded here. For part of these data: Where a sequence is shown, tags or fusion partners need not be part of it.

B1: 14-3-3ζ, P63104 1-245 (protein)
chain: MDKNELVQKAKLAEQAERYDDMAACMKSVTEQGAELSNEERNLLSVAYKNVVGARRSSWRVVSSIEQKTEGAEKKQQMAREYREKIETELRDICNDVLSLLEKFLIPNASQAESKVFYLKMKGDYYRYLAEVAAGDDKKGIVDQSQQAYQEAFEISKKEMQPTHPIRLGLALNFSVFYYEILNSPEKACSLAKTAFDEAIAELDTLSEESYKDSTLIMQLLRDNLTLWTSDTQGDEAEAGEGGEN
B2: TAB1 (MAP3K7IP1) (protein, UniProt Q15750 1-504)
chain: MAAQRRSLLQSEQQPSWTDDLPLCHLSGVGSASNRSYSADGKGTESHPPEDSWLKFRSENNCFLYGVFNGYDGNRVTNFVAQRLSAELLLGQLNAEHAEADVRRVLLQAFDVVERSFLESIDDALAEKASLQSQLPEGVPQHQLPPQYQKILERLKTLEREISGGAMAVVAVLLNNKLYVANVGTNRALLCKSTVDGLQVTQLNVDHTTENEDELFRLSQLGLDAGKIKQVGIICGQESTRRIGDYKVKYGYTDIDLLSAAKSKPIIAEPEIHGAQPLDGVTGFLVLMSEGLYKALEAAHGPGQANQEIAAMIDTEFAKQTSLDAVAQAVVDRVKRIHSDTFASGGERARFCPRHEDMTLLVRNFGYPLGEMSQPTPSPAPAAGGRVYPVSVPYSSAQSTSKTSVTLSLVMPSQGQMVNGAHSASTLDEATPTLTNQSPTLTLQSTNTHTQSSSSSSDGGLFRSRPAHSLPPGEDGRVEPYVDFAEFYRLWSVDHGEQSVVTAP
B3: NONO (protein, UniProt Q15233 1-471)
chain: MQSNKTFNLEKQNHTPRKHHQHHHQQQHHQQQQQQPPPPPIPANGQQASSQNEGLTIDLKNFRKPGEKTFTQRSRLFVGNLPPDITEEEMRKLFEKYGKAGEVFIHKDKGFGFIRLETRTLAEIAKVELDNMPLRGKQLRVRFACHSASLTVRNLPQYVSNELLEEAFSVFGQVERAVVIVDDRGRPSGKGIVEFSGKPAARKALDRCSEGSFLLTTFPRPVTVEPMDQLDDEEGLPEKLVIKNQQFHKEREQPPRFAQPGSFEYEYAMRWKALIEMEKQQQDQVDRNIKEAREKLEMEMEAARHEHQVMLMRQDLMRRQEELRRMEELHNQEVQKRKQLELRQEEERRRREEEMRRQQEEMMRRQQEGFKGTFPDAREQEIRMGQMAMGGAMGINNRGAMPPAPVPAGTPAPPGPATMMPDGTLGLTPPTTERFGQAATMEGIGAIGGTPPAFNRAAPGAEFAPNKRRRY
B4: TAK1 (MAP3K7) (protein, UniProt O43318 1-606)
chain: MSTASAASSSSSSSAGEMIEAPSQVLNFEEIDYKEIEVEEVVGRGAFGVVCKAKWRAKDVAIKQIESESERKAFIVELRQLSRVNHPNIVKLYGACLNPVCLVMEYAEGGSLYNVLHGAEPLPYYTAAHAMSWCLQCSQGVAYLHSMQPKALIHRDLKPPNLLLVAGGTVLKICDFGTACDIQTHMTNNKGSAAWMAPEVFEGSNYSEKCDVFSWGIILWEVITRRKPFDEIGGPAFRIMWAVHNGTRPPLIKNLPKPIESLMTRCWSKDPSQRPSMEEIVKIMTHLMRYFPGADEPLQYPCQYSDEGQSNSATSTGSFMDIASTNTSNKSDTNMEQVPATNDTIKRLESKLLKNQAKQQSESGRLSLGASRGSSVESLPPTSEGKRMSADMSEIEARIAATTAYSKPKRGHRKTASFGNILDVPEIVISGNGQPRRRSIQDLTVTGTEPGQVSSRSSSPSVRMITTSGPTSEKPTRSHPWTPDDSTDTNGSDNSIPMAYLTLDHQLQPLAPCPNSKESMAVFEQHCKMAQEYMKVQTEIALLLQRKQELVAELDQDEKDQQNTSRLVQEHKKLLDENKSLSTYYQQCKKQLEVIRSQQQKRQGTS
B5: HA-tagged full-length TAK1 (protein, UniProt O43318-2 1-579)
chain: MSTASAASSSSSSSAGEMIEAPSQVLNFEEIDYKEIEVEEVVGRGAFGVVCKAKWRAKDVAIKQIESESERKAFIVELRQLSRVNHPNIVKLYGACLNPVCLVMEYAEGGSLYNVLHGAEPLPYYTAAHAMSWCLQCSQGVAYLHSMQPKALIHRDLKPPNLLLVAGGTVLKICDFGTACDIQTHMTNNKGSAAWMAPEVFEGSNYSEKCDVFSWGIILWEVITRRKPFDEIGGPAFRIMWAVHNGTRPPLIKNLPKPIESLMTRCWSKDPSQRPSMEEIVKIMTHLMRYFPGADEPLQYPCQYSDEGQSNSATSTGSFMDIASTNTSNKSDTNMEQVPATNDTIKRLESKLLKNQAKQQSESGRLSLGASRGSSVESLPPTSEGKRMSADMSEIEARIAATTGNGQPRRRSIQDLTVTGTEPGQVSSRSSSPSVRMITTSGPTSEKPTRSHPWTPDDSTDTNGSDNSIPMAYLTLDHQLQPLAPCPNSKESMAVFEQHCKMAQEYMKVQTEIALLLQRKQELVAELDQDEKDQQNTSRLVQEHKKLLDENKSLSTYYQQCKKQLEVIRSQQQKRQGTS
B6: HA-tagged TAK1 S412A (protein, UniProt O43318-2 1-579)
chain: B5 chain with S412A
B7: HA-tagged TAK1 S432A (protein, UniProt O43318-2 1-579)
chain: B5 chain with S432A
B8: HA-tagged TAK1 S268A (protein, UniProt O43318-2 1-579)
chain: B5 chain with S268A
B9: HA-tagged TAK1-N (kinase domain, 1-300AA) (domain or fragment, UniProt O43318-2 1-300)
chain: MSTASAASSSSSSSAGEMIEAPSQVLNFEEIDYKEIEVEEVVGRGAFGVVCKAKWRAKDVAIKQIESESERKAFIVELRQLSRVNHPNIVKLYGACLNPVCLVMEYAEGGSLYNVLHGAEPLPYYTAAHAMSWCLQCSQGVAYLHSMQPKALIHRDLKPPNLLLVAGGTVLKICDFGTACDIQTHMTNNKGSAAWMAPEVFEGSNYSEKCDVFSWGIILWEVITRRKPFDEIGGPAFRIMWAVHNGTRPPLIKNLPKPIESLMTRCWSKDPSQRPSMEEIVKIMTHLMRYFPGADEPLQY

One assay concerns the target T1, FLAG-tagged human 14-3-3ε (human), P62258.
T1 chain: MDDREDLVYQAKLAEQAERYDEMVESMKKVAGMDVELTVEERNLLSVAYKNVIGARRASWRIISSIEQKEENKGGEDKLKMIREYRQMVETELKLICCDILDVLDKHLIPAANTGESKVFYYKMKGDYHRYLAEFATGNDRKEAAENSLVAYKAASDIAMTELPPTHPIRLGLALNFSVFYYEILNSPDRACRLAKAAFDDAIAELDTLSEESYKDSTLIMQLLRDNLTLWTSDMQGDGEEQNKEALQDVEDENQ
The assay is described as follows: co-IP; anti-FLAG beads on lysates of HCC cells stably expressing FLAG-14-3-3ε, untreated or treated with BLM (20 mU/ml 2 h; 150 mU/ml 4 h); endogenous partners detected by immunoblot. As to conditions: remark: other sources report otherwise.
With B1, the binding entry is reported as “binds”.

The next assay has as its target FLAG-tagged human 14-3-3ε (human) (UniProt P62258). Described as above.
Settings: not given
Turning to B2, the binding entry is recorded as “binds”.
The same measure, in the same setting: the same measure for B3: “binds”; for B4: “binds”.

A further assay has the same target. As to the kind of experiment: co-IP; HA-tagged TAK1 constructs co-transfected with FLAG-tagged 14-3-3ε into QGY-7703 cells, 48 h, with or without BLM; anti-FLAG beads, immunoblot.
Settings: not given
Background: Immunoblotting shows a protein as a band on a membrane.
Turning to B5, the binding result is recorded as “binds”.
Still for that read-out and setting: the same measure for B6: “binds”; for B7: “binds”; for B8: “no binding”.
On the same count and under the same terms, the same measure for B9: “binds”.

The next assay has the same target. As to the kind of experiment: co-IP; anti-FLAG beads on lysates of HCC cells stably expressing FLAG-14-3-3ε, untreated or treated with BLM (20 mU/ml 2 h; 150 mU/ml 4 h); endogenous partners detected by immunoblot.
Settings: not given
The source holds these as a separate data set.
Take HDAC1 (from UniProt Q13547 1-482): the binding result was “binds”.
In the case of “Damage-specific DNA binding protein 1 (from UniProt Q16531 1-1140)”, the binding result is “binds”.
On the same count and under the same terms, the same measure for HDAC6 (from UniProt Q9UBN7 1-1215): “binds”.
